Source: the supplement of paper PMC3334620
The full ranking holds about 33,000 sequences; the median of “E-score (-0.5 to 0.5)” is about -0.054, and the highest 2% start at about 0.35. This is one part of the list.

The sequences below were run against T1, Stb5 (UniProt P38699) (assay: PBM E-score (8-mer binding enrichment) (E-score (-0.5 to 0.5)); higher = stronger / more preferred TF binding; most listed sequences are background and not binding sites). Settings: protein concentration: 200 nM; construct: GST-full length.
T1 sequence: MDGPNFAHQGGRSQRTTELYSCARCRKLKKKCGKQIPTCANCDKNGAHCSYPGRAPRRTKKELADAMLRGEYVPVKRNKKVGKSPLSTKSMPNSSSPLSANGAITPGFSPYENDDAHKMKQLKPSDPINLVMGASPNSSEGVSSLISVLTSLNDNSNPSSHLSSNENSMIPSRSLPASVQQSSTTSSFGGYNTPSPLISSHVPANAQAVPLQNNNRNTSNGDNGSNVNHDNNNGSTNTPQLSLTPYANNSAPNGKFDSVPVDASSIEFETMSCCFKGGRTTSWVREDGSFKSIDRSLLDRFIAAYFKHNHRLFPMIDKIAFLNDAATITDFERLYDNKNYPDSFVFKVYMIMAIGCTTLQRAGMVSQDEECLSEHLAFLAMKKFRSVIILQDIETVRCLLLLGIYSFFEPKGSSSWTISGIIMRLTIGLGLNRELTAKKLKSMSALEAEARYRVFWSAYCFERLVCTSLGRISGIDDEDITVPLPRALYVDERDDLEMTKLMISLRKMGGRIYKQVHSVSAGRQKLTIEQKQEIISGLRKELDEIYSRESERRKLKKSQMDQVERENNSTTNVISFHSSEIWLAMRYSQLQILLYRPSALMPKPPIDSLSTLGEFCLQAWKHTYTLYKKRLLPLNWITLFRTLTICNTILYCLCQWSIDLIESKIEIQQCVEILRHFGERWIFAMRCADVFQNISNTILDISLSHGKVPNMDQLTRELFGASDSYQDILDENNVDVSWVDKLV
How it was run: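 Bound GST-tagged yeast transcription factors, applied at about 100-200 nM to double-stranded universal all-10-mer Agilent arrays, were detected with fluorescent anti-GST. Scans were normalised with masliner. A modified Wilcoxon-Mann-Whitney statistic, the E-score, was assigned to each ungapped eight-base word pooled with its reverse complement by the Universal PBM Analysis Suite.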

Row | Sequence | PBM E-score
1 | GCGGTAAA | 0.313
2 | ATACCTCC | 0.288
3 | ACGCTCCA | -0.077
4 | ACCTCCCC | 0.0574
5 | CCCGCCCG | 0.298
6 | AGCTGACC | -0.174
7 | CGCGAACG | 0.0406
8 | AAACGATC | -0.234
9 | GAATAGGC | -0.066
10 | CGGCCTCC | 0.129
11 | ACCTACGC | -0.024
12 | AAGGCCGA | 0.46
13 | AGTAACAT | -0.0434
14 | AGACGTAG | -0.232
15 | ATGGACGC | -0.0145
16 | GATCCTCA | -0.147
17 | AGGGCACA | -0.323
18 | CAGTCTCA | -0.196
19 | ATGCCAGC | -0.0761
20 | GGGATCCC | 0.0894
21 | AGCATGAT | -0.112
22 | ACTACTGA | -0.267
23 | GAAGGTGA | 0.0105
24 | AAAACTTC | 0.027
25 | GGGATGAA | 0.0485

Row | Sequence | PBM E-score
26 | AGTGCTTC | -0.198
27 | AGCATTAC | 0.0205
28 | ACTGCCGG | 0.269
29 | AAAGTATC | 0.0263
30 | ATAAACCA | -0.078
31 | ATCGCCTC | -0.271
32 | AATCTCCG | 0.423
33 | TGCCTGAA | -0.243
34 | CTCGGCCC | 0.079
35 | CTCCGATC | 0.327
36 | ACTCACAG | -0.178
37 | AGGAATAG | -0.067
38 | CATTTCAA | -0.2
39 | GAGGCATA | -0.0863
40 | GCTGGAAA | -0.0514
41 | TGTCGAAA | -0.315
42 | CGAACTGC | -0.0387
43 | CGACTTAA | -0.0485
44 | AGAAACTG | -0.0721
45 | GGCAATAA | 0.313
46 | CTCCTGCC | -0.135
47 | ATCTAGTG | -0.0673
48 | AGTAAGGG | 0.00422
49 | CAGATTGA | -0.104
50 | GGTGGAGA | -0.177

Row | Sequence | PBM E-score
51 | CAATAGTG | 0.164
52 | GGAAAGCA | 0.024
53 | CTGGTGAC | -0.0304
54 | GATCAAGC | -0.136
55 | AGGGGTGG | -0.15
56 | CAAGACTG | -0.252
57 | CACACGTG | -0.185
58 | GAGCACCA | -0.263
59 | CCGCCAAG | 0.275
60 | CATCCGTA | 0.164
61 | CGCCTGGC | 0.00215
62 | ACAAGACG | -0.0895
63 | CCGATTTA | 0.271
64 | ACCTAAGA | -0.169
65 | AGGAATAA | -0.0025
66 | ACAAATCT | -0.16
67 | ATACCATG | 0.00967
68 | ACCCTGCC | -0.196
69 | GGCTCGCA | -0.106
70 | GCACAATA | -0.048
71 | ATTGGAAG | 0.0232
72 | GATGCGAA | -0.0255
73 | ATGTATCC | 0.134
74 | CGTTCTGC | 0.0411
75 | ACGTGTGG | -0.197

Row | Sequence | PBM E-score
76 | CTCGGCAC | 0.187
77 | AGTTGTGG | -0.192
78 | ACCAAGCC | -0.0987
79 | AAGGCTAC | -0.214
80 | CCCAGAAA | -0.274
81 | TAGCCGGA | 0.279
82 | GGGCAAAC | 0.161
83 | AACGACAG | -0.205
84 | GACGCCAA | -0.103
85 | GAAGAGTA | -0.108
86 | AAATAGAG | -0.00964
87 | CCAAGCTA | -0.109
88 | CGGGAACA | 0.276
89 | AGTTTAAT | 0.0203
90 | AATCTAAG | -0.184
91 | TCTTGGCA | -0.0429
92 | AAACCGCT | 0.0494
93 | CCTGAGCC | -0.156
94 | ACATGGTC | -0.137
95 | CCAACATC | 0.00274
96 | ACACGTCT | -0.11
97 | AAACGAGC | -0.209
98 | CTACACCA | 0.00298
99 | ATTCACCA | -0.0265
100 | CTTGTACA | -0.212

Row | Sequence | PBM E-score
101 | GATGAGGA | -0.0414
102 | AGGCGTTC | -0.221
103 | TATAGACA | -0.178
104 | GTATGAAA | 0.087
105 | ATTCGAGC | -0.227
106 | GGATTGAA | 0.116
107 | GGGGGTAA | 0.248
108 | ACAGGGTA | -0.168
109 | AAGTAACG | 0.0665
110 | GGGGGGGA | -0.24
111 | AAGTTAGT | 0.0431
112 | AACTACTG | -0.0249
113 | CACGAGTA | -0.0773
114 | GGGGACAA | 0.0894
115 | TCACATGA | -0.199
116 | GAATACGA | -0.212
117 | ATGGATAG | -0.0412
118 | AGTTGCGC | 0.0696
119 | ATAGACAA | -0.202
120 | AACAGGGT | -0.0556
121 | CCCCTGCC | -0.17
122 | CGATAACG | 0.058
123 | ACCAAAAT | 0.0608
124 | CATGCATC | 0.0354
125 | CTCAAGTA | -0.174

Row | Sequence | PBM E-score
126 | ACCCCGGC | 0.343
127 | ACCCCCCC | -0.295
128 | CAGATACA | -0.0501
129 | GATAACGC | 0.174
130 | AGGCCAGC | -0.248
131 | CCTGCGGA | 0.111
132 | CAACATCA | -0.161
133 | TAGGTACA | -0.132
134 | CGCTGCCA | 0.0728
135 | ACGTTTAT | -0.0891
136 | AGCAGACG | 0.0811
137 | GTCTTTGA | -0.0135
138 | CCACGATC | -0.264
139 | GTAGCCAA | -0.105
140 | CCAGAGAG | -0.284
141 | CGCTGGCC | -0.0183
142 | AGCAGCTG | -0.185
143 | CGAGAGTA | -0.133
144 | CGACAGTC | -0.0974
145 | AGTATAAG | -0.0823
146 | GTAGGCGA | -0.0824
147 | AAACCGTT | 0.0437
148 | ATAAGATA | 0.071
149 | CAGTGTGC | -0.203
150 | CAGAGTGA | -0.0472

Row | Sequence | PBM E-score
151 | ACACTCCG | 0.265
152 | AGGATGGC | 0.0229
153 | AAGACCAC | -0.148
154 | CTCATTGA | -0.183
155 | AACTCGAT | -0.0673
156 | CGATGCCC | -0.012
157 | ATTGGAGA | -0.0644
158 | CGGTGCGA | 0.384
159 | AATTGGAA | -0.0303
160 | CCAGACGG | 0.179
161 | ACAACTCA | -0.164
162 | ACGTGGGA | -0.265
163 | GTACTCAA | -0.185
164 | AATTCGAT | 0.133
165 | AGGCTATC | -0.0947
166 | AGAGGTTA | -0.0424
167 | AATCACCG | 0.441
168 | AATAGGAA | -0.233
169 | CCGCTATA | 0.302
170 | TGCCGAAA | 0.252
171 | GAGCCTGC | -0.224
172 | AAACGGAC | 0.282
173 | CTTAAGAA | -0.172
174 | CTCATTCA | -0.195
175 | CATTATAC | 0.0862

Row | Sequence | PBM E-score
176 | CCAGCCTC | -0.288
177 | GCGTTGGA | -0.053
178 | ATGAGCCC | 0.162
179 | TAAAGCCA | -0.1
180 | AAGGCGCC | 0.135
181 | CCAAGTCC | 0.0932
182 | TCATGTCA | -0.301
183 | CTGGGATC | -0.1
184 | ACGTCCTG | -0.238
185 | CAGAATAG | -0.24
186 | GCCCGGAA | 0.128
187 | ACAAGGCT | -0.171
188 | CTAACATC | -0.0323
189 | TACTCCGA | 0.234
190 | TACGTCGA | -0.126
191 | CCACCGCG | 0.3
192 | CCTGTCCA | -0.279
193 | CCAGTGAG | -0.17
194 | AATCGTCC | 0.0731
195 | CAAGCTGA | -0.184
196 | CTTCCTTA | -0.182
197 | GATGTTGA | -0.138
198 | CCCTGTGC | -0.0362
199 | ACCCTACT | -0.0942
200 | AAGGGGCA | -0.221

Row | Sequence | PBM E-score
201 | GGGGTTTA | 0.329
202 | CAGTTGCC | -0.0751
203 | AAATGGGT | -0.143
204 | ATTATGGA | 0.0112
205 | GCACAACC | -0.0867
206 | CAAATCTC | -0.0196
207 | CTGATCTC | -0.308
208 | AGTTTCGG | 0.108
209 | GAAACGCC | 0.279
210 | TGCAGCAA | -0.194
211 | GAGGCATC | -0.282
212 | CCGGGGGA | 0.219
213 | AGACAGGA | -0.266
214 | ATGCAATG | -0.0465
215 | ATCGCTGC | 0.125
216 | AGCCGGCG | 0.248
217 | TCCGTAAA | 0.175
218 | GTAGAGCA | -0.111
219 | ACACGACA | -0.226
